In PubChem BioAssay AID504832 (National Center for Advancing Translational Sciences (NCATS), 2011):
In all, about 310,000 compounds went through this assay and about 18,000 (5.8%) were called active. Inconclusive means that the source gave no clear call. Such entries were picked first, then a sample of the others. Calls come from the whole dose curve; as a rule, active = well fitted inhibition curve with a large enough effect; inconclusive = small, poorly fitted or top-dose-only effect, or another doubt; inactive = no such curve, though single readings can be large or run the other way. Potencies of inconclusive entries are left out as doubtful fits.

Assay: Primary qHTS for delayed death inhibitors of the malarial parasite plastid, 48 hour incubation
Settings: P. falciparum luciferase growth in erythrocytes; series mostly up to 28.7 µM; activity change, negative = inhibition: at the top concentration
Procedure, shortened: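 Read-out is firefly luciferase luminescence from an integrated reporter in P. falciparum, so falling signal marks reduced parasite growth. Infected erythrocytes were at 2% hematocrit and 0.1% parasitemia (final) in Albumax-supplemented RPMI 1640.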
% is set by controls: 0 for no effect and ±100 for the full control effect; potency is the fitted concentration of half-maximal effect; tags give direction and shape of the fitted curve.

Structure (SMILES)	Potency	activity change, negative = inhibition
CCCCC1=CC2=CC(=O)C(C)(OC(=O)CC)C(=O)C2=CN1CC(C)C (centres undefined)	inconclusive [inhibitor, single point]	–
COc1ccc(C(CNC(=O)c2cc3ccccc3o2)N2CCCC2)cc1 (centres undefined)	inconclusive [inhibitor, single point]	–
COc1ccc(NC(=O)c2sc3nc(C)nc(N4CCN(c5ccccn5)CC4)c3c2C)c(OC)c1	inconclusive [inhibitor, full curve]	–
CN(C)c1ccc(C(c2nnnn2C(C)(C)C)N2CCc3ccccc3C2)cc1 (centres undefined)	–	inactive: -1.37%
CCCOC1CCCN(C(=O)c2cc(COc3ccc(F)c(F)c3)on2)C1 (centres undefined)	–	inactive: -1.08%
Cc1ccc2nc(Cl)c3cc(C(=O)N(CCN(C)C)Cc4ccco4)sc3c2c1	inconclusive [inhibitor, partial curve, poor fit]	–
O=[N+]([O-])c1ccc(/C=C/c2nc3ccc([N+](=O)[O-])cc3[nH]2)cc1	active: 4.15 µM	–
COc1ccccc1OCC(O)CN1CCN(CC(=O)Nc2c(C)cccc2C)CC1 (centres undefined)	inconclusive [inhibitor, single point]	–
CCOC(=O)Cn1c(=O)n(Cc2ccco2)c(=O)c2ccc(C(=O)NCCc3ccccc3)cc21	inconclusive [inhibitor, partial curve]	–
O=C(NC1CCCC1)C(c1ccccn1)N(Cc1ccccc1F)C(=O)c1csnn1 (centres undefined)	inconclusive [inhibitor, partial curve, poor fit]	–
O=C(NCCS(=O)(=O)c1ccc(Cl)cc1)c1ccc(F)cc1	inconclusive [inhibitor, partial curve]	–
COc1ccc2o/c(=N\O)c(C(=O)Nc3ccc(C)cc3)cc2c1	–	inactive: -1.69%
O=C(NCCCN1CCCC1)c1cc(Sc2ccc(F)cc2)nc2ccccc12	inconclusive [inhibitor, single point]	–
O=C(c1cc2ccccn2n1)N1CCC2(CC1)OCCO2	–	inactive: 23.1%
CCCCNC(=O)c1cn(C)c2ccc(S(=O)(=O)N3CC(C)CC(C)C3)cc2c1=O (centres undefined)	–	inactive: -38.6%
N#CCSc1nc2ccccc2c(=O)n1CC1CCCC1	–	inactive: -35.6%
CCOc1ccc(NC(=O)CC2C(=O)N(CC)C(=S)N2CCN2CCOCC2)cc1 (centres undefined)	inconclusive [inhibitor, full curve, poor fit]	–
Cc1onc(-c2c(F)cccc2Cl)c1C(=O)N=C(N)N1CCCC1	–	inactive: 6.31%
Cc1cc(NC(=O)CSCC(=O)N(C)Cc2ccc(F)cc2)no1	–	inactive: 6.99%
CNC[C@H](NC[C@@H](NCCCc1ccccc1)c1ccccc1)[C@H](C)O	inconclusive [inhibitor, partial curve, poor fit]	–
Cc1ccc(S(=O)(=O)N2CCN(C(=O)CSC3CCCC3)CC2)c(C)c1	inconclusive [inhibitor, single point]	–
Cc1cc(C)c2nc(NC(=O)c3ccc([N+](=O)[O-])o3)sc2c1	inconclusive [inhibitor, single point]	–
CC(=O)NC(CC(=O)Nc1ccc(S(=O)(=O)Nc2nccs2)cc1)c1ccccc1 (centres undefined)	inconclusive [inhibitor, single point]	–

Structure (SMILES)	Potency	activity change, negative = inhibition
O=C(COC(=O)Cc1n[nH]c(=O)c2ccccc12)NNC(=O)c1ccc(Cl)cc1	–	inactive: 0.0422%
Cc1cn(C2CCC(CO)O2)c(=O)[nH]c1=O (centres undefined)	–	inactive: -4.5%
CC(CCc1ccc(O)cc1)NCCC(c1ccccc1)c1ccccc1 (centres undefined)	inconclusive [inhibitor, partial curve]	–
O=C1/C(=C/c2ccc(C(=O)O)cc2)CCC/C1=C\c1ccc(C(=O)O)cc1	active: 2.08 µM	–
Cn1c(=O)n(C)c2cc(NC(=O)c3ccc(F)cc3)c(Br)cc21	inconclusive [inhibitor, single point]	–
Nc1ccc(C(=O)Nc2ccc3nc(-c4cccnc4)[nH]c3c2)cc1	inconclusive [inhibitor, partial curve, poor fit]	–
CC(=O)N1N=C(c2cccc(NS(=O)(=O)c3ccc(C)cc3)c2)CC1c1ccco1 (centres undefined)	inconclusive [inhibitor, full curve, poor fit]	–
O=C(CSc1n[nH]c(-c2ccncc2)n1)Nc1ccccc1Cl	–	inactive: 1.93%
c1ccc(-c2nc3nonc3c3nc4ccccc4n23)cc1	–	inactive: -4.81%
COc1ccc(NC2CCCN(C(=O)CCN3CCCC3=O)C2)cc1 (centres undefined)	–	inactive: 13.3%
CC(C)N(C(=O)COC(=O)c1ccccc1C(=O)N1CCN(c2ccc(F)cc2)CC1)C(C)C	–	inactive: -3.05%
Cc1sc2ncnc(OCC(=O)c3ccc(S(=O)(=O)N4CCCC4)cc3)c2c1C	inconclusive [inhibitor, partial curve]	–
CC1CN(C(=O)CCC(=O)NCc2ccccn2)c2ccccc2O1 (centres undefined)	–	inactive: 36%
O=C(NCc1ccccn1)C(=O)N/N=C/c1ccccc1O	inconclusive [inhibitor, partial curve, poor fit]	–
COc1ccccc1-c1nnn(C/C(N)=N/O)n1	–	inactive: 14.6%
O=C(Nc1ccc(OCc2ccccc2)cc1)Nc1ccccc1C(=O)NCCCN1CCOCC1	inconclusive [inhibitor, single point]	–
O=C(c1ccccc1)N1CCCC(c2ccc(Cl)cc2)=N1	active: 14.7 µM	–
Cc1onc(-c2ccccc2Cl)c1C(=O)N1CCC(Cc2ccccc2)CC1	inconclusive [inhibitor, single point]	–
Cc1c(OCc2ccccc2)c(=O)ccn1Cc1ccc(F)cc1	inconclusive [inhibitor, partial curve, poor fit]	–
Cc1cc(OCC(=O)N(C)C2CCCCC2)ccc1Cl	–	inactive: 484%
COc1ccccc1N1CCN(S(=O)(=O)c2ccc3c(c2)NC(=O)C(C)S3)CC1 (centres undefined)	inconclusive [inhibitor, partial curve]	–
CC(=O)Nc1ccccc1C(F)(F)F	inconclusive [inhibitor, single point]	–
COc1ccccc1NC(=O)CN(c1ccc(C23CC4CC(CC(C4)C2)C3)cc1)S(C)(=O)=O	inconclusive [inhibitor, single point]	–

Structure (SMILES)	Potency	activity change, negative = inhibition
CCC(=O)N1CCN(c2ccc(Cl)cc2NC(=O)c2ccc(N3CCCC3)c([N+](=O)[O-])c2)CC1	inconclusive [inhibitor, full curve, poor fit]	–
O=[N+]([O-])c1ccc(-c2nc(Nc3ccc(O)cc3)c3ccccc3n2)cc1	inconclusive [inhibitor, single point]	–
O=C(Cc1coc2ccc3ccccc3c12)NC1CCCc2ccccc21 (centres undefined)	inconclusive [inhibitor, single point]	–
O=C1CN(C(=O)COC(=O)/C=C/c2ccc(S(=O)(=O)N3CCOCC3)cc2)c2ccccc2N1	–	inactive: -17.3%
O=C1C2CSCN2C(=O)CN1CCCN1CCN(C(c2ccccc2)c2ccccc2)CC1 (centres undefined)	inconclusive [inhibitor, single point]	–
Cc1ccc(C2/C(=C(/O)c3ccc(Br)cc3)C(=O)C(=O)N2Cc2ccco2)o1 (centres undefined)	inconclusive [inhibitor, full curve, poor fit]	–
Clc1ccc(Cn2ncc3c(NCCN4CCOCC4)ncnc32)cc1	inconclusive [inhibitor, partial curve, poor fit]	–
COC(=O)CSc1nc(C)cc(N2CCOCC2)n1	–	inactive: 12.6%
c1ccc2c(Nc3ccc4c(c3)OCCO4)c3c(nc2c1)CCC3	inconclusive [inhibitor, partial curve]	–
O=C(COc1ccccc1-c1ccccc1)NNC(=O)NC1CCCCC1	inconclusive [inhibitor, partial curve]	–
O=C(Nc1cccnc1)c1ccc(Cl)c([N+](=O)[O-])c1	inconclusive [inhibitor, partial curve, poor fit]	–
CCOc1ccc2nc(NC(=O)Cn3c(C)csc3=O)sc2c1	–	inactive: 40.2%
Cn1c(=O)cc(SCC(=O)NCCCN2CCN(c3ccccc3F)CC2)c2ccccc21	inconclusive [inhibitor, single point]	–
O=C(Nc1ccc(NC(=O)c2cc3ccccc3o2)cc1)c1ccc2c(c1)OCCO2	inconclusive [inhibitor, full curve]	–
CN(C)C(=O)CN1CCN(Cc2nc(CC3CC3)no2)CC1	–	inactive: 7.07%
COc1ccc(S(=O)(=O)N2CCC(C(=O)NCCC(=O)NCc3cccc(OC)c3)CC2)cc1	–	inactive: -3.83%
CN(C)Cc1c(O)ccc2c3c(c(=O)oc12)CCCCC3	inconclusive [inhibitor, single point]	–
Cc1ccc(-n2nc3c(=O)n(C(C)C(=O)NCc4ccc(Cl)cc4)nc(C)c3c2C)cc1 (centres undefined)	inconclusive [inhibitor, partial curve, poor fit]	–
O=C(CCC1CCCN(C(=O)c2cccs2)C1)N1CCN(c2ccccn2)CC1 (centres undefined)	inconclusive [inhibitor, partial curve]	–
O=C(NC1CC1)C1=C[C@@H](c2ccccc2)C[C@@H](OCc2ccc(CO)cc2)O1	inconclusive [inhibitor, single point]	–
CN1CC(C(=O)O)Cc2c1ccc1ccccc21 (centres undefined)	inconclusive [inhibitor, single point]	–
Cc1cc(CSC(=N)N)c(CSC(=N)N)cc1C	inconclusive [inhibitor, full curve, poor fit]	–
CC(C)(C)NCC(O)(c1ccc(Cl)cc1)c1ccc(Cl)cc1	inconclusive [inhibitor, partial curve, poor fit]	–
